Sequences and labels used below:
T1: UNK ZnF1-6 (called full-length) (human, UniProt Q9C0B0 30-357)
T1 sequence: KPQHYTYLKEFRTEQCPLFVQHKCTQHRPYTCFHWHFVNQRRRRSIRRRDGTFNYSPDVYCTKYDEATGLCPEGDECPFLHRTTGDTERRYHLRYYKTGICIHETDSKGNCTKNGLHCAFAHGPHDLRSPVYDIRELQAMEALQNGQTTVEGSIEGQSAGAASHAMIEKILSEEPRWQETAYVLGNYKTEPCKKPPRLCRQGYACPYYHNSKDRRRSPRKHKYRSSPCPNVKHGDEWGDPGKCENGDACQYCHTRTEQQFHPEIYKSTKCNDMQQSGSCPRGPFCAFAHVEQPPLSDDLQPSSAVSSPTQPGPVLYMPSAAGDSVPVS

B1: chr6:145799413:145799514:-|3pUTR|ENSG00000118496|msi1|total|mutant (ssRNA)
RNA: GGGAGUUCUACAGUCCGACGAUCUUAUCUCACAUACUUACAACUCAACACACAGAGUGACCAUGUGCAGCUUUCUUUUUUGUCCGAUGCCACAUCCGAAGACUCAUCGCAGUGUGUUAUAUGACAGGACAAAGCAAAAACAAACAACAGAGGAUUGAGCAUCA
B2: chr8:23842440:23842541:-|3pUTR|ENSG00000159167|msi1|FALSE|unique (ssRNA)
RNA: GGGAGUUCUACAGUCCGACGAUCCCAAUGCGACAAGUAGUUCAUGAGUAUUCCUAGCAAAUUUCUCUCUUUCUUCAGUUCAGUAGAUUUCCUUUUUUCUUUUCUUUUUUUUUUUUUUUUUUUUUGGCUGUGACCUCUUCAAACCAACAGAGGAUUGAGCAUCA
B3: chr17:74579364:74580001:-|three_prime_utr|ENSG00000204345|control|control|control (ssRNA)
RNA: GGGAGUUCUACAGUCCGACGAUCGGGCGAAAGGCCCUCCCACAGAAGAAAAAACAUUUUCUUUUCUCUUCUUUUUUUCUUUCUAGAGAUAGAGUCUUGCUCUGUCACCCAGGCUGGAAUGCAAUGGUGUAAUCUCUGCUCACUCAACAGAGGAUUGAGCAUCA
B4: chr5:148417036:148417137:+|CDS|ENSG00000145868|unk|FALSE|unique (ssRNA)
RNA: GGGAGUUCUACAGUCCGACGAUCGGUUGUGCUCGAGUUGGUCUGAGUGCAGGCACAGGAAUUGGUGUUUCAUCAGCUCUUGUUAGCAACCAGAACUCCAACAAUGACGAUAAUAAUGCCCAGAAUAACAAUGCCAACAUCCACCAACAGAGGAUUGAGCAUCA
B5: chr2:32377587:32377702:+|CDS|ENSG00000115760|unk|FALSE|unique (ssRNA)
RNA: GGGAGUUCUACAGUCCGACGAUCGGUGAAAUGUCAGUAUAUCUCUGCUGUGGAUAAAGUUAUAUUUGUGGAUGAUUAUGCAGUAGGGUGUAGGAAGGACCUUAAUGGAAUCUUGUUGUUAGACACUGCUCUGCAAACUCCAGUCAACAGAGGAUUGAGCAUCA
B6: chr14:75134463:75134564:-|3pUTR|ENSG00000170348|msi1|FALSE|unique (ssRNA)
RNA: GGGAGUUCUACAGUCCGACGAUCCUGUUUGGACUAUGUUUUCUUUUCUUCUCCCACUUGCUCAGCAGCUUGGGCUUCCAUUCUAGUUCUUUUACCAAGAUUUUUGUGUGACCAUGUUGACUUCAUUUGGAUUGCCCUCUUUCACAACAGAGGAUUGAGCAUCA
B7: chr1:161222291:161222522:-|three_prime_utr|ENSG00000158874|control|control|control (ssRNA)
RNA: GGGAGUUCUACAGUCCGACGAUCACACAGCCUGCCACCCAGUGAAGUGUCCAGACCAUUGUCUUCCAACCCCAGCUGGCCUCUAGAACACCCACUGGCCAGUCCUAGAGCUCCUGUCCCUACCCACUCUUUGCUACAAUAAAUCAACAGAGGAUUGAGCAUCA
B8: chr3:141442868:141442977:+|CDS|ENSG00000177311|unk|total|mutant (ssRNA)
RNA: GGGAGUUCUACAGUCCGACGAUCCCAGCCAUCACUAAUGGGCCAAGGAUCACAAAUGCAUUUUCCAUCAUCGAAACAGAAAACCGUAAUAACAUGUUUUCCCCGCUGGACUUGAGGGCAAGUUUCAAAAAGGUCUCCGACUCCCAACAGAGGAUUGAGCAUCA
B9: chr1:113764432:113764533:-|3pUTR|ENSG00000081019|msi1|FALSE|bound_elsewhere (ssRNA)
RNA: GGGAGUUCUACAGUCCGACGAUCAAAAUAUUCUGAAAUAGGUUAAAUCUUAUAUAAAUAUUACUUUGUGCAAUAUUGUUGUGUAGUUAAAUGCAUAUUAGCAAAGUAUAGAGGUCACUGUGUAAACCGAUAGAAAAGUAACCACAACAGAGGAUUGAGCAUCA
B10: chr22:36488912:36489013:-|3pUTR|ENSG00000100350|msi1|total|mutant (ssRNA)
RNA: GGGAGUUCUACAGUCCGACGAUCCCCGUCUCUUCUUCAUUGCCCUUCCUCACCAGCAAUCUGCACUUUCCCAUCAGGCGUCUCCGUCUCAUUUGUAAGUGCAUAAGAUAAUCACAGUGAUUUUUCAAAGCCCAGGAUCAUAAGCAACAGAGGAUUGAGCAUCA
B11: chr2:1633339:1633490:-|3pUTR|ENSG00000130508|msi1|FALSE|unique (ssRNA)
RNA: GGGAGUUCUACAGUCCGACGAUCUUCAUAAGCCACAUUUAGAAACAGGUUUGCUUUCAGCUGUCACUUGCACACAUACUGCCUAGUUGUGAACCAAAUGUGAAAAAACCUCCUUCAUCCCAUUGUGUAUCUGAUACCUGCCGACAACAGAGGAUUGAGCAUCA
B12: chr10:62807900:62808002:+|3pUTR|ENSG00000181915|unk|FALSE|unique (ssRNA)
RNA: GGGAGUUCUACAGUCCGACGAUCCAAAAAGUUGAUUAGCUUACCAAGAUUAUUAAUAGCAAUGUAUGUGUUAUAAUACAACUUAGUACAUUAAAGCUACGAAAACUCAUCCUGGCUGUAGGAUAGUAAUAAAGGAAGAAUUAUCAACAGAGGAUUGAGCAUCA
B13: chr1:214663888:214664008:+|3pUTR|ENSG00000117724|msi1|FALSE|bound_elsewhere (ssRNA)
RNA: GGGAGUUCUACAGUCCGACGAUCAGGAGAAAACAAUUCCUUAGAAGUCUUAAAUAUAUUGUACUCUUUAGAUCUCCCAUGUGUAGGUAUUGAAAAAGUUUGGAAGCACUGAUCACCUGUUAGCAUUGCCAUUCCUCUACUGCACAACAGAGGAUUGAGCAUCA
B14: chr9:91409354:91409467:-|CDS|ENSG00000165030|unk|total|mutant (ssRNA)
RNA: GGGAGUUCUACAGUCCGACGAUCAAUGAAAGACAGUGGCUACAAAGUUUCUGACCCAGAGAACUUGUAUUUGAAGCAGGGGACCGCAAACUUAUCUGCAGAGGUUGUCUCACUCAAGAGACUUACCGCCACACAACCAAUCUCCAACAGAGGAUUGAGCAUCA
B15: chr14:22589090:22589186:-|5pUTR_CDS|ENSG00000129562|msi1_unk|total|mutant (ssRNA)
RNA: GGGAGUUCUACAGUCCGACGAUCUCCUCCAAGAGUUUGGGGCGCGGACCGGAGUACCUUGCGUGCAGUUAUGUCGGCGUCGGCCGUGUCUGUCAUUUCGCGGUUCUCCGAAGAGUACUUGAGCUCCACUCCGCAGCGUCUGAACAACAGAGGAUUGAGCAUCA
B16: chr4:56461171:56461272:+|3pUTR|ENSG00000128050|msi1|total|mutant (ssRNA)
RNA: GGGAGUUCUACAGUCCGACGAUCCUUCUGUAACCACAGUGACUACAAGCCGUUCUUUCUCUAUUGAAUUAUCCGGUCCAGAACCGAAGAUGUCAUUGUACACUUUAUUUCCCUCACACUGUGUUAUGCUCUGAUGUGCUAUGCCAACAGAGGAUUGAGCAUCA
B17: ENSG00000122863:stop:overlap|stop_codon|ENSG00000122863|stop_codon|NA|stop_codon (ssRNA)
RNA: GGGAGUUCUACAGUCCGACGAUCCCGCCCUCACCAACCGCUCAGUCAGCCUGCUGGAGGAGAGGGGCACCUUCUGGGUCACGUAGGGGGGCCGGGGCCCCGUAUGCCCCUCCUCGUGAAAGGCCUGCCCCGUCUUUCUGCCGCCAACAGAGGAUUGAGCAUCA

Some of the results follow.

The target of the experiment is T1, UNK ZnF1-6 (called full-length). The experiment is described as follows: nsRBNS (natural sequence RNA bind-n-seq); RBNS binding buffer (assumed for nsRBNS): 25 mM Tris pH 7.5, 150 mM KCl, 3 mM MgCl2, 0.01% Triton X-100, 500 ug/ml BSA, 20 U/ml SUPERase-In, 4 C; UNK is unkempt and MSI1 is Musashi-1; names of the RNAs are library labels; protein concentration not given here; high values mean tight binding.
For B1, the binding signal was found to be 0.316 enrichment R.
Molecule B2 had a binding signal of 28.9 enrichment R.
The molecule B3 gave a binding signal of 0.885 enrichment R.
B4: the binding signal is 0.455 enrichment R.
In the case of B5 it was 0.488 enrichment R.
Molecule B6 came in with a binding signal of 0.995 enrichment R.
Then B7, with 1.09 enrichment R; and B8, with 0.538 enrichment R; and B9, with 6.21 enrichment R.
In turn, B10 came in with a binding signal of 0.527 enrichment R.
Then B11, with 0.335 enrichment R; and B12, with 1.16 enrichment R.
In the case of B13 it was 4.99 enrichment R; in that of B14, 0.615 enrichment R; in that of B15, 0.537 enrichment R.
Then B16, with 0.296 enrichment R; and B17, with 0.708 enrichment R.

Source of the values: PMC12136788.
